Test results from the supplement of paper PMC12217912.
The other results are listed elsewhere or left out. The full chains were built here from the parent and the listed change. Inactive controls read about 0.05.

B1: TEV protease; numbered along this chain (parent)
chain: MGESLFKGPRDYNPISSSICHLTNESDGHTTSLYGIGFGPFIITNKHLFRRNNGTLVVQSLHGVFKVKDTTTLQQHLVDGRDMIIIRMPKDFPPFPQKLKFREPQREERICLVTTNFQTKSMSSMVSDTSCTFPSGDGIFWKHWIQTKDGQCGSPLVSTRDGFIVGIHSASNFTNTNNYFTSVPKNFMELLTNQEAQQWVSGWRLNADSVLWGGHKVFMVKPEEPFQPVKEATQL

Variants of: B1
Test: raw area under fraction-flipped curve 0-4 h after induction (AUC4h, not background-subtracted), DNA-recorder readout of cleavage of the substrate (dimensionless); higher = more cleavage of the substrate by the protease variant
Details: temperature: 34 °C; time window: 0-4 h after rhamnose induction
Protocol: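 In vivo DNA recorder in E. coli TOP10(DE3) ΔrhaA at 34 °C. Each TEVp single-site mutant (parent TEVp 0) is paired with a single-site variant of the 7-mer TEVs (canonical ENLYFQ|S). The substrate sits between flexible linkers in a Bxb1-sfGFP-TEVs-SsrA fusion, so cleavage stabilises Bxb1 and speeds flipping of a recombination array, read by NGS. The value is the raw area under the fraction-flipped curve over 0-4 h after rhamnose induction (AUC4h), with ≥20 reads per time point. It is not background-subtracted; inactive controls average about 0.047.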
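Also: Bxb1 expression induced with 0.2% (w/v) L-rhamnose at OD600 near 0.5, cultures sampled hourly, flipped fraction per protease–substrate barcode pair counted by paired-end Illumina sequencing.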

Variant | area with substrate ENLYFQA | area with substrate ENLYFQD | area with substrate ENLYFQH | area with substrate ENLYFQL | area with substrate ENLYFQM | area with substrate ENLYFQN | area with substrate ENLYFQS | area with substrate ENLYFQT | area with substrate ENLYFQW | area with substrate ENLYFQC | area with substrate ENLYFQG | area with substrate ENLYFQI | area with substrate ENLYFQK | area with substrate ENLYFQP | area with substrate ENLYFQR | area with substrate ENLYFQV | area with substrate ENLYFQE | area with substrate ENLYFQF | area with substrate ENLYFQY | area with substrate ENLYFQQ
MGESLFKGPRDYNPISSSICHLTNESDGHTTSLYGIGFGPFIITNKHLFRRNNGTLVVQSLHGVFKVKDTTTLQQHLVAGRDMIIIRMPKDFPPFPQKLKFREPQREERICLVTTNFQTKSMSSMVSDTSCTFPSGDGIFWKHWIQTKDGQCGSPLVSTRDGFIVGIHSASNFTNTNNYFTSVPKNFMELLTNQEAQQWVSGWRLNADSVLWGGHKVFMVKPEEPFQPVKEATQL [D79A] | 0.082 | 0.0769 | 0.0846 | 0.0589 | 0.0998 | 0.0593 | 0.0904 | 0.0658 | 0.0577 |  |  |  |  |  |  |  |  |  |  | 
MGESLFKGPRDYNPISSSICHLTNESDGHTTSLYGIGFGPFIITNKHLFRRNNGTLVVQSLHGVFKVKDTTTLQQHLVDGRDMIIIRMPKFFPPFPQKLKFREPQREERICLVTTNFQTKSMSSMVSDTSCTFPSGDGIFWKHWIQTKDGQCGSPLVSTRDGFIVGIHSASNFTNTNNYFTSVPKNFMELLTNQEAQQWVSGWRLNADSVLWGGHKVFMVKPEEPFQPVKEATQL [D91F] | 0.137 | 0.0632 | 0.0719 | 0.0518 |  | 0.0866 | 0.0934 | 0.0647 | 0.0824 | 0.0924 | 0.0859 | 0.0343 | 0.0622 | 0.0706 | 0.064 | 0.0639 |  |  |  | 
MGESLFKGPRDYNPISSSICHLTNESDGHTTSLYGIGFGPFIITNKHLFRRNNGTLVVQSLHGVFKVKDTTTLQQHLVDGRDMIIIRMPKWFPPFPQKLKFREPQREERICLVTTNFQTKSMSSMVSDTSCTFPSGDGIFWKHWIQTKDGQCGSPLVSTRDGFIVGIHSASNFTNTNNYFTSVPKNFMELLTNQEAQQWVSGWRLNADSVLWGGHKVFMVKPEEPFQPVKEATQL [D91W] | 0.0508 | 0.0756 |  |  | 0.0908 |  | 0.0969 | 0.0562 | 0.0782 | 0.0933 | 0.099 | 0.095 | 0.0705 | 0.0635 | 0.0617 |  | 0.0856 | 0.0789 | 0.0731 | 
MGESLFKGPRDYNPISSSICHLTNESDGHTTSLYGIGFGPFIITNKHLFRRNNGTLVVQSLHGVFKVKDTTTLQQHLVDGRDMIIDRMPKDFPPFPQKLKFREPQREERICLVTTNFQTKSMSSMVSDTSCTFPSGDGIFWKHWIQTKDGQCGSPLVSTRDGFIVGIHSASNFTNTNNYFTSVPKNFMELLTNQEAQQWVSGWRLNADSVLWGGHKVFMVKPEEPFQPVKEATQL [I86D] | 0.0313 |  |  | 0.0176 | 0.0353 |  | 0.0392 |  | 0.0497 | 0.0524 | 0.0327 | 0.0388 |  |  | 0.0433 |  |  |  | 0.0443 | 
MGESLFKGPRDYNPISSSICHLTNESDGHTTSLYGIGFGPFIITNKHLFRRNNGTLVVQSLHGVFKVKDTTTLQQHLVDGRDMIIWRMPKDFPPFPQKLKFREPQREERICLVTTNFQTKSMSSMVSDTSCTFPSGDGIFWKHWIQTKDGQCGSPLVSTRDGFIVGIHSASNFTNTNNYFTSVPKNFMELLTNQEAQQWVSGWRLNADSVLWGGHKVFMVKPEEPFQPVKEATQL [I86W] | 0.0584 | 0.0713 | 0.028 | 0.0624 | 0.0621 |  | 0.0728 | 0.0591 | 0.0617 | 0.0725 | 0.0702 | 0.0501 | 0.072 | 0.0522 | 0.0569 | 0.0498 | 0.0595 | 0.0475 | 0.0637 | 
MGESLFKGPRDYNPISSSICHLTNESDGHTTSLYGIGFGPFIITNKHLFRRNNGTLVVQSLHGVFKVKDTTTSQQHLVDGRDMIIIRMPKDFPPFPQKLKFREPQREERICLVTTNFQTKSMSSMVSDTSCTFPSGDGIFWKHWIQTKDGQCGSPLVSTRDGFIVGIHSASNFTNTNNYFTSVPKNFMELLTNQEAQQWVSGWRLNADSVLWGGHKVFMVKPEEPFQPVKEATQL [L73S] | 0.0614 | 0.0617 |  |  |  | 0.0339 | 0.0619 | 0.0512 |  | 0.0701 | 0.0657 |  | 0.0584 | 0.028 | 0.0542 |  |  |  | 0.0523 | 
MGESLFKGPRDYNPISSSICHLTNESDGHTTSLYGIGFGPFIITNKHLFRRNNGTLVVQSLHGVFKVKDTTTTQQHLVDGRDMIIIRMPKDFPPFPQKLKFREPQREERICLVTTNFQTKSMSSMVSDTSCTFPSGDGIFWKHWIQTKDGQCGSPLVSTRDGFIVGIHSASNFTNTNNYFTSVPKNFMELLTNQEAQQWVSGWRLNADSVLWGGHKVFMVKPEEPFQPVKEATQL [L73T] | 0.0653 | 0.0606 | 0.0552 | 0.0809 | 0.0796 | 0.0651 | 0.073 | 0.0633 | 0.0604 | 0.0739 | 0.0804 |  | 0.0602 | 0.0594 | 0.0638 | 0.0478 |  |  |  | 0.0614
MGESLFKGPRDYNPISSSICHLTNESDGHTTSLYGIGFGPFIITNKHLFRRNNGTLVVQSLHGVFKVKDTTTLQQHLVDGRDMIIIRMPKDEPPFPQKLKFREPQREERICLVTTNFQTKSMSSMVSDTSCTFPSGDGIFWKHWIQTKDGQCGSPLVSTRDGFIVGIHSASNFTNTNNYFTSVPKNFMELLTNQEAQQWVSGWRLNADSVLWGGHKVFMVKPEEPFQPVKEATQL [F92E] | 0.075 | 0.0659 |  | 0.0588 | 0.064 |  | 0.0856 |  | 0.051 | 0.104 | 0.0805 |  | 0.0672 | 0.0525 | 0.0595 | 0.0628 |  |  |  | 
MGESLFKGPRDYNPISSSICHLTNESDGHTTSLYGIGFGPFIITNKHLFRRNNGTLVVQSLHGVFKVKDTTTLQQHLVDGRRMIIIRMPKDFPPFPQKLKFREPQREERICLVTTNFQTKSMSSMVSDTSCTFPSGDGIFWKHWIQTKDGQCGSPLVSTRDGFIVGIHSASNFTNTNNYFTSVPKNFMELLTNQEAQQWVSGWRLNADSVLWGGHKVFMVKPEEPFQPVKEATQL [D82R] | 0.0798 |  |  |  | 0.0613 |  | 0.0605 |  |  | 0.095 | 0.0616 |  |  | 0.0692 |  |  |  |  |  | 
